# Results published in the supplement of paper PMC8728848.
# Some of the results follow.
# Experiments:
# Experiment in all cases: glycan array binding signal (z-score within array); higher = stronger binding
# Conditions in all cases: glycan notation: IUPAC condensed, linker removed
# [1] = target: Fuc(a1-2)Gal
# Summary of the method: (§1)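 From the Consortium for Functional Glycomics database, 3228 arrays were curated, keeping only those whose protein sequence was available. Binding is given as a within-array Z-score averaged across arrays sharing a protein sequence and across linkers. Negative Z-scores can be read as non-binding.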
# [2] = target: Fuc(a1-2)Gal(b1-3)GalNAc
# Summary of the method: as §1
# [3] = target: Fuc(a1-2)Gal(b1-3)GalNAc(b1-3)Gal
# Summary of the method: as §1
# [4] = target: Fuc(a1-2)Gal(b1-3)GalNAc(b1-3)Gal(a1-4)Gal(b1-4)Glc
# Summary of the method: as §1
# [5] = target: Fuc(a1-2)Gal(b1-3)GalNAc(b1-4)[Neu5Ac(a2-3)]Gal(b1-4)Glc
# Summary of the method: as §1
# [6] = target: Fuc(a1-2)Gal(b1-3)GlcNAc
# Summary of the method: as §1
# [7] = target: Fuc(a1-2)Gal(b1-3)GlcNAc(b1-2)Man(a1-3)[Fuc(a1-2)Gal(b1-3)GlcNAc(b1-2)Man(a1-6)]Man(b1-4)GlcNAc(b1-4)GlcNAc
# Summary of the method: as §1
# [8] = target: Fuc(a1-2)Gal(b1-3)GlcNAc(b1-3)Gal(b1-4)Glc
# Summary of the method: as §1
# [9] = target: Fuc(a1-2)Gal(b1-3)GlcNAc(b1-3)[Gal(b1-4)[Fuc(a1-3)]GlcNAc(b1-6)]Gal(b1-4)Glc
# Summary of the method: as §1
# [10] = target: Fuc(a1-2)Gal(b1-3)[Fuc(a1-4)]GlcNAc
# Summary of the method: as §1
# [11] = target: Fuc(a1-2)Gal(b1-3)[Fuc(a1-4)]GlcNAc(b1-2)Man(a1-3)[Fuc(a1-2)Gal(b1-3)[Fuc(a1-4)]GlcNAc(b1-2)Man(a1-6)]Man(b1-4)GlcNAc(b1-4)GlcNAc
# Summary of the method: as §1
# [12] = target: Fuc(a1-2)Gal(b1-4)Glc
# Summary of the method: as §1
# [13] = target: Fuc(a1-2)Gal(b1-4)Glc6S
# Summary of the method: as §1
# [14] = target: Fuc(a1-2)Gal(b1-4)GlcNAc
# Summary of the method: as §1
# [15] = target: Fuc(a1-2)Gal(b1-4)GlcNAc(b1-2)Man(a1-3)[Fuc(a1-2)Gal(b1-4)GlcNAc(b1-2)Man(a1-6)]Man(b1-4)GlcNAc(b1-4)GlcNAc
# Summary of the method: as §1
# [16] = target: Fuc(a1-2)Gal(b1-4)GlcNAc(b1-3)Gal(b1-4)GlcNAc
# Summary of the method: as §1
# [17] = target: Fuc(a1-2)Gal(b1-4)GlcNAc(b1-3)Gal(b1-4)GlcNAc(b1-3)Gal(b1-4)GlcNAc
# Summary of the method: as §1
# [18] = target: Fuc(a1-2)Gal(b1-4)GlcNAc6S
# Summary of the method: as §1
# [19] = target: Fuc(a1-2)Gal(b1-4)[Fuc(a1-3)]GlcNAc
# Summary of the method: as §1
# [20] = target: Fuc(a1-2)Gal(b1-4)[Fuc(a1-3)]GlcNAc(b1-2)Man(a1-3)[Fuc(a1-2)Gal(b1-4)[Fuc(a1-3)]GlcNAc(b1-2)Man(a1-6)]Man(b1-4)GlcNAc(b1-4)GlcNAc
# Summary of the method: as §1
# [21] = target: Fuc(a1-2)Gal(b1-4)[Fuc(a1-3)]GlcNAc(b1-3)Gal(b1-4)[Fuc(a1-3)]GlcNAc
# Summary of the method: as §1
# [22] = target: Fuc(a1-2)Gal(b1-4)[Fuc(a1-3)]GlcNAc(b1-3)Gal(b1-4)[Fuc(a1-3)]GlcNAc(b1-3)Gal(b1-4)[Fuc(a1-3)]GlcNAc
# Summary of the method: as §1
# [23] = target: Fuc(a1-2)Gal6S(b1-4)Glc
# Summary of the method: as §1
# [24] = target: Fuc(a1-2)Gal6S(b1-4)Glc6S
# Summary of the method: as §1
# [25] = target: Fuc(a1-2)Gal6S(b1-4)GlcNAc
# Summary of the method: as §1
# [26] = target: Fuc(a1-2)GlcNAc
# Summary of the method: as §1
# [27] = target: Fuc(a1-2)[Gal(a1-3)]Gal
# Summary of the method: as §1
# [28] = target: Fuc(a1-2)[Gal(a1-3)]Gal(b1-3)GlcNAc
# Summary of the method: as §1
# [29] = target: Fuc(a1-2)[Gal(a1-3)]Gal(b1-3)GlcNAc(b1-2)Man(a1-3)[Fuc(a1-2)[Gal(a1-3)]Gal(b1-3)GlcNAc(b1-2)Man(a1-6)]Man(b1-4)GlcNAc(b1-4)GlcNAc
# Summary of the method: as §1
# [30] = target: Fuc(a1-2)[Gal(a1-3)]Gal(b1-4)Glc
# Summary of the method: as §1
binder,measurement,setting,value
"SSA (Sclerotinia sclerotiorum), A7XUK7 (protein) MGFKGVGTYEIVPYQAPSLNLNAWEGKLEPGAVVRTYTRGDKPSDNAKWQVALVAGSGDSAEYLIINVHSGYFLTATKENHIVSTPQISPTDPSARWTIKPATTHQYEVFTINNKVSELGQLTVKDYSTHSGADVLSASAKTADNQKWYFDAK",glycan array binding signal (z-score),[1],0.516
same,glycan array binding signal (z-score),[2],0.988
same,glycan array binding signal (z-score),[3],-0.089
same,glycan array binding signal (z-score),[4],1.78
same,glycan array binding signal (z-score),[5],1.46
same,glycan array binding signal (z-score),[6],-0.132
same,glycan array binding signal (z-score),[7],-0.095
same,glycan array binding signal (z-score),[8],-0.151
same,glycan array binding signal (z-score),[9],-0.198
same,glycan array binding signal (z-score),[10],-0.356
same,glycan array binding signal (z-score),[11],-0.283
same,glycan array binding signal (z-score),[12],0.12
same,glycan array binding signal (z-score),[13],-0.023
same,glycan array binding signal (z-score),[14],-0.112
same,glycan array binding signal (z-score),[15],-0.278
same,glycan array binding signal (z-score),[16],0.191
same,glycan array binding signal (z-score),[17],0.169
same,glycan array binding signal (z-score),[18],0.014
same,glycan array binding signal (z-score),[19],-0.36
same,glycan array binding signal (z-score),[20],-0.173
same,glycan array binding signal (z-score),[21],-0.407
same,glycan array binding signal (z-score),[22],-0.32
same,glycan array binding signal (z-score),[23],0.161
same,glycan array binding signal (z-score),[24],0.457
same,glycan array binding signal (z-score),[25],0.07
same,glycan array binding signal (z-score),[26],-0.462
same,glycan array binding signal (z-score),[27],-0.373
same,glycan array binding signal (z-score),[28],-0.397
same,glycan array binding signal (z-score),[29],-0.312
same,glycan array binding signal (z-score),[30],-0.327
